The values below are quoted from earlier work in article PMC11006913.

Some of the results follow.

Conditions in all cases: PBM; conditions not shown; double strand, one strand shown; scale: upbm affinity estimate (log intensity, higher = more binding, comparable within an allelic series)
In data set [1] the target is HOXD13 I297V (Homo sapiens) (UniProt P35453).
For data set [2], the target named is HOXD13 I322L (Homo sapiens) (UniProt P35453).
For data set [3], the target named is HOXD13 N298S (Homo sapiens) (UniProt P35453).
In data set [4] the target is HOXD13 Q325K (Homo sapiens) (UniProt P35453).
Data set [5] has as its target HOXD13 Q325R (Homo sapiens) (UniProt P35453).
Data set [6] concerns the target HOXD13 R306W (Homo sapiens) (UniProt P35453).
The target of data set [7] is HOXD13 S316C (Homo sapiens) (UniProt P35453).
Data set [8] addresses PROP1 R112Q (Homo sapiens) (UniProt O75360).
For data set [9], the target named is PROP1 R99Q (Homo sapiens) (UniProt O75360).
Data set [10] has as its target NKX2-5 K183E (Homo sapiens) (UniProt P52952).
The target of data set [11] is NKX2-5 R161P (Homo sapiens) (UniProt P52952).
Data set [12] concerns the target NKX2-5 R190C (Homo sapiens) (UniProt P52952).
Data set [13] deals with ISX (Homo sapiens) (UniProt Q2M1V0).
Data set [14] addresses ISX R83Q (Homo sapiens) (UniProt Q2M1V0).
Data set [15] has as its target PITX2 L100Q (Homo sapiens) (UniProt Q99697).
For data set [16], the target named is PITX2 R108H (Homo sapiens) (UniProt Q99697).
For data set [17], the target named is PITX2 R130W (Homo sapiens) (UniProt Q99697).
Data set [18] has as its target PITX2 T114P (Homo sapiens) (UniProt Q99697).

For AATAAAAC [8-mer AATAAAAC], the binding signal was 12.3 in data set [1]; 11.1 in data set [2]; 12.6 in [3]; 11.5 in data set [4]; 12.1 in [5]; 11.7 in data set [6]. The binding signal in [7] was 12.3.
In the case of CCACGCCC [8-mer CCACGCCC], the binding signal in data set [1] is 9.29; in [2], 9.3; in [3] it was 9.26; in [4] it was 9.47; in data set [5], 9.21; in data set [6] it was 9.32. Moreover, the figures for the binding signal in data set [7], in data set [8] and in data set [9] were 9.33, 10.8 and 10.9, respectively.
Consider AGTCGGCG [8-mer AGTCGGCG], for which the binding signal was 9.55 in [1]; 9.52 in [2]; 9.47 in [3]; 9.56 in [4]; 9.51 in data set [5]; 9.54 in data set [6]. Moreover, the binding signal in data set [7] is 9.59; in data set [8], 10.9; in [9] it was 11.
Turning to CCACCCGC [8-mer CCACCCGC], the binding signal in data set [1] was 9.65; in data set [2], 9.67; in data set [3], 9.63; in data set [4] it was 9.65; in data set [5], 9.63; in data set [6], 9.55. In addition, the binding signal in data set [7] is 9.67; in data set [10], 10; in data set [11] it was 10; in data set [12] it was 9.96.
For GCTCCCCC [8-mer GCTCCCCC], the binding signal in data set [1] is 9.37; in data set [2] it was 9.24; in data set [3], 9.4; in data set [4], 9.39; in data set [5] it was 9.12; in data set [6] it was 9.17. The binding signal was 9.29 in data set [7]; 9.55 in [13]; 9.6 in [14]; 8.22 in data set [15]; 7.93 in data set [16]; 7.71 in [17]. Further, in data set [18], the binding signal was 7.95.
Consider CCCTGGCC [8-mer CCCTGGCC], for which the binding signal in data set [1] was 9.15; in data set [2] it was 9.15; in data set [3], 9.17; in data set [4], 9.45; in data set [5], 9.19; in data set [6], 9.29. Further, the binding signal in [7] was 9.26; in data set [13], 9.62; in data set [14], 9.62; in [10] it was 9.94; in data set [11], 9.98; in data set [12], 9.96.
In the case of GCCGTAGC [8-mer GCCGTAGC], the binding signal in data set [1] is 9.59; in data set [2], 9.56; in [3], 9.54; in data set [4] it was 9.29; in data set [5], 9.4; in [6] it was 9.44. In addition, the binding signal is 9.53 in data set [7]; 8.19 in [15]; 8.14 in [16]; 8.13 in [17]; 8.11 in data set [18].
As for ACACAATA [8-mer ACACAATA], the binding signal in [1] is 11; in data set [2], 10.6; in data set [3], 11.1; in data set [4], 10.5; in [5] it was 10.8; in data set [6], 10.5. For the same sequence, in [7], the binding signal was 10.9.
Turning to CACCGGCC [8-mer CACCGGCC], the binding signal in data set [1] was 9.47; in data set [2] it was 9.45; in data set [3] it was 9.27; in [4], 9.29; in data set [5], 9.43; in data set [6], 9.32. Further, the binding signal in [7] is 9.33; in data set [15] it was 8.05; in data set [16], 7.9; in data set [17], 7.86; in data set [18] it was 7.93; in [8], 10.9. Moreover, the binding signal in data set [9] was 10.9.
